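Exposure lasted 48 hours, with cells grown in 96-well plates and compounds tested at five concentrations. Abbreviation: GI50, concentration required for 50% inhibition of growth. TGI: concentration producing complete growth inhibition.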 Numbered stars: 1 amine (or outer) side, 2 acyl side, 3 side chain; on linkers, the order of the positions; unused ones are H or OH. Square brackets hold non-standard residues; d marks the D form. Peptide text beside a SMILES is read from it. * marks the point of attachment. X9 = C/C=C/CC(C)C(O)[C@H](N[*:1])C(=O)[*:2]; Leu(ol) = CC(C)C[C@H](N)CO; Iva = CC[C@](C)(N)C(=O)O; Octanoyl = CCCCCCCC(=O)*; Aib = CC(C)(N)C(=O)O
Tested on: NCI-H322M lung
Experiment: DTP human tumour cell line panel, 48 h

Structure (SMILES) | GI50 [µM] | TGI [µM]
COc1ccc([C@@H]2C(=O)N(c3cc(OC)c(OC)c(OC)c3)[C@H]2c2ccc(OC)c(O)c2)cc1 | 0.0853 | > 100
C/C=C/CC(C)C(O)[C@H](NC(=O)[C@@H]1CCCN1C(=O)C(C)(C)NC(=O)CCCCCCC)C(=O)N[C@@](C)(CC)C(=O)N[C@@H](CCC(N)=O)C(=O)N[C@H](CCC(N)=O)C(=O)NC(C)(C)C(=O)NC(C)(C)C(=O)N[C@@H](CCC(N)=O)C(=O)N[C@H](CC(C)C)C(=O)N[C@H](CO)CC(C)C (stereo partly drawn) (Octanoyl-[Aib]P[X9][Iva]Q[dQ][Aib][Aib]Q[dL][Leu(ol)]) | 11.2 | 23.7
C=CCN(C)S(=O)(=O)/N=C1\NC(=O)NC1=C(Cl)Cl | 3.47 | 13.5
O=C(CCC(=O)N1CCOCC1)OCCCCCCSc1ccc([N+](=O)[O-])c2nonc12 | 3.65 | 15.3

— PubChem BioAssay (NCI)
